# Test results as given in article PMC4336329 (PLoS ONE, 2015).
# Out of some 310,000 compounds screened, about 14,000 (4.5%) showed an effect of 50% or more. Effects have a minus sign here. Some of the results follow.
# Target: human ether-à-go-go-related gene (hERG) potassium channel (human, UniProt Q12809)
# Assay: primary screen, population patch clamp on CHO cells stably expressing hERG
# 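Note: peak tail current of the secondary pulse compared with the same well before compound.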
# Sequence of human ether-à-go-go-related gene (hERG) potassium channel (Q12809 whole entry, looked up): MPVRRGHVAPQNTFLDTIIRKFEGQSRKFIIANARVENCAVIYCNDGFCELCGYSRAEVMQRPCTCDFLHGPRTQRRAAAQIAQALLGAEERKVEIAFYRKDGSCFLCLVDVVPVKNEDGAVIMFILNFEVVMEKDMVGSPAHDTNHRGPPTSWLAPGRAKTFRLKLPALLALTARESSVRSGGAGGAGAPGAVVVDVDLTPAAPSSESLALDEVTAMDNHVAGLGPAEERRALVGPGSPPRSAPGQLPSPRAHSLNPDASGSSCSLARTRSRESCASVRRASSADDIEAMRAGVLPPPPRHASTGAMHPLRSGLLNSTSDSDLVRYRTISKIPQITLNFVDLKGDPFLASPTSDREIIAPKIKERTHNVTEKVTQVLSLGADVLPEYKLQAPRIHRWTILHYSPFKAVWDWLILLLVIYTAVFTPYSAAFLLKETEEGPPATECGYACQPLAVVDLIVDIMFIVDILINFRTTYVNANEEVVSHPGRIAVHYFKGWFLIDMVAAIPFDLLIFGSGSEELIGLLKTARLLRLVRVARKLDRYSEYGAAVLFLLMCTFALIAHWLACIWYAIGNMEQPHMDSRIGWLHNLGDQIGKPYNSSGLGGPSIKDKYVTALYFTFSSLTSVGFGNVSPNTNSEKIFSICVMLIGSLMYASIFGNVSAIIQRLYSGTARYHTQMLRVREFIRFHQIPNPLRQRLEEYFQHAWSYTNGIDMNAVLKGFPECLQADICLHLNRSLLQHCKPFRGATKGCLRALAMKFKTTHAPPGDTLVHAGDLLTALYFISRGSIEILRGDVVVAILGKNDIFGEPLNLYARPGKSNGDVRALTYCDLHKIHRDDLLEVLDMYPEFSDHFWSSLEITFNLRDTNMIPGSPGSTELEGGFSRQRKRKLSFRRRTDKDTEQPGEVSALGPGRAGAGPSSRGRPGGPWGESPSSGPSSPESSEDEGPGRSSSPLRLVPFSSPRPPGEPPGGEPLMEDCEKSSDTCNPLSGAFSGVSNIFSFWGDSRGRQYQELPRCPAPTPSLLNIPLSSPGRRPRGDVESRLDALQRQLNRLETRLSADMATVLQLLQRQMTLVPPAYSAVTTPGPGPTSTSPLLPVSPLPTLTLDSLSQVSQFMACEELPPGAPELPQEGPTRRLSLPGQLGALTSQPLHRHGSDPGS
row,SMILES,"hERG current change (%, negative = inhibition) at 10uM [%]"
1,Cc1ccc(CS(=O)(=O)CCC(=O)NCCC2=CCCCC2)cc1,19.3
2,COc1ccc(-n2nnnc2Sc2ccc(S(=O)(=O)N3CCOCC3)cn2)cc1,-6.54
3,Cc1ccc2oc(C(=O)Nc3nnc(C)s3)c(C)c2c1,1.82
4,O=C(CNC(=O)c1ccccn1)N/N=C/c1ccc2c(c1)OCO2,2.6
5,O=C(CN1C(=O)c2cccnc2Oc2ccc(Cl)cc21)NCCc1ccccc1,-8.11
6,Cc1ccc2c(CC(=O)NC3=NCCS3)coc2c1,-1.5
7,Cc1cccc(CCNC(=O)c2cccc3c2C(=O)N(C2CCCCC2)C3)c1,-28
8,CC(C)CN(CC(C)C)C(=O)CN1c2cccc3cccc(c23)S1(=O)=O,18.1
9,Cc1ccc2c(c1)Cc1nc3ccccc3nc1-2,-11.3
10,Oc1ccccc1N=Cc1sc2ccccc2c1Cl,2.23
11,O=C(C1=C[C@@H](c2csc3ccccc23)C[C@@H](OCc2ccc(CO)cc2)O1)N1CCN(Cc2ccccc2)CC1,-35.3
12,Cc1csc(CNC(=O)CC2C(=O)NCCN2Cc2ccc(F)cc2Cl)n1 (stereo not shown),-6.47
13,COCCCNc1ncnc2ccc(C)cc12,-6.06
14,COc1ccc(Nc2oc(-c3ccc(Cl)cc3)nc2C#N)cc1,9.76
15,Cc1cc(NC(=O)CSc2nc(N)c(NC(=O)c3ccco3)c(=O)[nH]2)no1,19.2
16,COc1ccc(C)cc1NC(=O)c1sc2ncn(CC(=O)N3CCCCC3)c(=O)c2c1C,9.03
17,COc1cccc(OC(C)c2ccnc3nc(/N=C/N(C)C)nn23)c1 (stereo not shown),11.6
18,Cc1onc(-c2ccccc2)c1C(=O)N(CC(C)C)c1c(N)n(CC(C)C)c(=O)[nH]c1=O,-3.18
19,Cc1noc(C)c1COC(=O)C1(c2cccc(F)c2)CCCC1,-1.86
20,Cc1ccc2c(c1)c1c(n2CC(O)CN2C(=O)CNC2=O)C(=O)CCC1 (stereo not shown),-24.3
21,CCC(C)c1ccc(OCCn2ccnc2)cc1.O=C(O)C(=O)O (stereo not shown),-9.93
22,O=C(CCc1c[nH]c2ccccc12)NCCc1ccc2c(c1)OCCO2,13.6
23,Cc1ccccc1C(=O)N[C@H](C(=O)Nc1ccc(Cl)c(Cl)c1)C(C)C,15.8
24,O=c1oc(-c2ccco2)nc2sc3c(c12)CCCCC3,11.9
25,COCCNC(=S)Nc1ccccn1,15.3
26,COc1ccc(C(CCN2CCCC2)c2c(OC)cc(OC)c3c(-c4ccccc4)cc(=O)oc23)cc1 (stereo not shown),-52.7
27,COc1ccc(C(=O)C2CCN(C(=S)NCCc3ccc(OC)c(OC)c3)CC2)cc1,-7.6
28,CC(NCc1ccc(S(N)(=O)=O)cc1)C(=O)N1c2ccccc2CC1C.O=C(O)C(=O)O (stereo not shown),-3.54

row,SMILES,"hERG current change (%, negative = inhibition) at 10uM [%]"
1,CCCn1c(O)c(N=NC(=O)CNC(=O)/C=C/c2ccc(OC)cc2)c2ccccc21,-26.1
2,CCOc1ccc(C(C)=O)cc1Cn1ccsc1=N.Cl,12.3
3,C=CCC(=O)NC(C)c1cnn(-c2ccccc2C)c1C (stereo not shown),5.38
4,COc1ccc(CNC(=O)C2CSCCS2)cc1 (stereo not shown),12.4
5,CCCCCCCCCCC[N+](C)(C)CC/C=C1/c2ccccc2Sc2ccc(Cl)cc21.[Br-],-32.8
6,Cc1cc(NC(=O)c2cc(-c3ccncc3)nc3c(C)cccc23)no1,7.44
7,CS(=O)(=O)N(CC(=O)N1CCCCCC1)c1cccc([N+](=O)[O-])c1,-32.7
8,COC(=O)c1cc(OC)c(OC)cc1NC(=O)c1cccc(OC)c1OC,-0.352
9,O=C(c1cc2nc(-c3ccc(F)cc3)cc(C(F)(F)F)n2n1)N1CCCCC1c1cccnc1 (stereo not shown),-80.2
10,O=C(Nc1cccc(-c2ccc(N3CCOCC3)nn2)c1)c1ccc(Cl)cc1,-3.12
11,COc1ccccc1C(=O)Nc1ccc(S(=O)(=O)Nc2cc(C)nc(C)n2)cc1,6.3
12,CC1=C(C(=O)Nc2ccccc2)C(c2cccs2)C(C#N)=C(SCC#N)N1 (stereo not shown),-1.93
13,Cc1ccc(C(OC(=O)c2ccco2)C(=O)NCc2cccs2)cc1 (stereo not shown),12.1
14,CCOC(=O)C1=C(COC(=O)c2cc(OC)c(OC)c(OC)c2)NC(=O)NC1C (stereo not shown),5.35
15,CCOc1cccc2sc(N(CCN(C)C)C(=O)c3ccc4ccccc4c3)nc12.Cl,-51.5
16,Cc1ccc(C2CC(c3cccs3)=NN2C(=O)c2ccc(Br)o2)cc1 (stereo not shown),4.28
17,CCOC(=O)/C(C#N)=C\c1ccc(O)c(OC)c1,8.1
18,COc1ccc(NS(=O)(=O)c2cc(OCC(N)=O)c(C)cc2Cl)cc1,1.91
19,CC1=C(C(=O)Nc2ccccc2)C(c2ccc(C)o2)n2ncnc2N1 (stereo not shown),11.7
20,Clc1ccccc1CN(Cc1ccccc1)C(c1cccs1)c1nnnn1C1CCCC1 (stereo not shown),9.73
21,Cc1ccc2c(c1)N(CC(=O)NCCCN1CC(C)CC(C)C1)C(=O)c1cccnc1O2 (stereo not shown),-4.44
22,COC(=O)c1cc(OC)c(OC)cc1NC(=S)Nc1cccc(C(C)=O)c1,6.36
23,CCC(c1nnnn1CCOC)N1CCN(c2cccc(C(F)(F)F)c2)CC1.Cl (stereo not shown),-23.2
24,Cc1noc(C)c1COc1cccc(C(=O)OC(C)C#N)c1 (stereo not shown),3.98
25,COc1ccc(NC(=O)c2cc(S(=O)(=O)Nc3ccc(OC)cc3)cs2)cc1,-3.01
26,CCC1(C(=O)c2ccccc2)C(c2cccc([N+](=O)[O-])c2)C1(C(=O)OC)C(=O)OC (stereo not shown),4.51
27,O=C1c2cccc3c([N+](=O)[O-])ccc(c23)C(=O)N1c1nccs1,-2.83
